According to PubChem BioAssay AID1656 (Sanford-Burnham Center for Chemical Genomics, 2009):
The other results are listed elsewhere or left out. Further columns of the screen follow, without active or inactive calls. Most of these compounds were active or inconclusive in the main read-out, so they are no random draw.

Assay: inhibitors of hepatocyte lipid droplet formation, primary screen, imaging, high-throughput imaging, BODIPY stain (AID 1656);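 also: cells counted across two imaged fields per well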
Settings: AML12 mouse hepatocytes, oleate lipid droplets, measured here: cell count, cytotoxicity flag, at 6.5 µM
How it was run: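 Technique: fluorescence imaging, 20x objective, two fields per well / Assay system: AML12 hepatocytes (mouse) / Measure: % inhibition of lipid droplet signal / Doses: 6.5 µM single-point dosing / Incubation: overnight exposure / Reagent: 100 µM oleic acid challenge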
Work on `CCCn1c(SCC(=O)NC)nc2sc3c(c2c1=O)CCC3` yielded a cell count of 154 cells.
`COC(=O)c1cn(NC(=O)c2ccc([N+](=O)[O-])cc2Cl)c(=O)c2ccccc12` gave a cell count of 661 cells.
`CCCCSCCCNC(=O)c1ccc2c(c1)N(CC)C(=O)c1ccccc1S2=O` (configuration not stated) gave a cell count of 810 cells.
For `Cc1cc(Cl)ccc1NC(=S)NCCCN1CCCC1=O`, the cell count was 291 cells.
`COc1cccc(N=Nc2ccc3ccccc3c2O)c1` showed a cell count of 769 cells.
For `COc1ccccc1N1CCN(C(=O)Cn2ncc3c([nH]c4ccccc43)c2=O)CC1`, the cell count was 732 cells.
Compound `CCOCCCNC(=O)c1ccc2c(c1)N=C(CC)c1cc(Br)ccc1S2` has a cell count of 200 cells.
In the case of `COCCNC(=S)N1CCc2cc(OC)c(OC)cc2C1COc1cc(C)cc(C)c1` (configuration not stated), the cell count is reported as 565 cells.
`COc1ccc(-c2nc(NC(=O)c3ccc(OCC(=O)N4CCOCC4)c(OC)c3)sc2C)cc1` gave a cell count of 547 cells.
For `O=C(CNc1ccccc1)N/N=C/c1cn(-c2ccccc2)nc1-c1ccccc1`, the cell count was 650 cells.
In the case of `COCCn1cnc2c(c1=O)c1nc3ccccc3nc1n2/N=C/c1ccc(OC)c(OC)c1`, the cell count is reported as 691 cells.
In the case of `CCC(=O)Nc1c2c(nn1-c1ccc(C)cc1)CS(=O)(=O)C2`, the cell count is reported as 736 cells.
Compound `COc1ccc(NC(=O)CN2C(=O)NC(c3ccccc3)(c3ccccc3)C2=O)cc1OC` has a cell count of 784 cells.
In the case of `CCn1cc(C(=O)N(C)c2ccc(OC)cc2)c2cc(OC)c(OC)cc2c1=O`, the cell count is reported as 829 cells.
`O=C(Nc1ccc(NC(=O)c2cc3ccccc3o2)cc1)c1ccco1` showed a cell count of 769 cells.
`NC(=O)N/N=C/c1ccc(-c2ccc([N+](=O)[O-])cc2)o1` gave a cell count of 657 cells.
Work on `COc1ccc(OS(=O)(=O)c2ccc(N3C(=O)CCC3=O)cc2)cc1` yielded a cell count of 49 cells.
With `CC1(C)S[C@@H]2[C@H](NC(=O)[C@H](C(=O)O)c3ccsc3)C(=O)N2[C@H]1C(=O)O` the cell count was 291 cells.
`O=C(Cc1cccc2ccccc12)Nc1c(F)cccc1F` showed a cell count of 844 cells.
Compound `CCCCn1c(N)c(-c2nc3ccccc3s2)c2c([N+](=O)[O-])nn(CC)c(=O)c21` has a cell count of 727 cells.
For `CCOC(=O)CSc1c(-c2cccs2)[nH]c2ccccc12`, the cell count was 785 cells.
Work on `CCN(CC)c1ccc(/C=C2\CCC(/C=C(\C#N)C(=O)Nc3ccccc3F)=C2N2CCOCC2)cc1` yielded a cell count of 651 cells.
In the case of `COc1ccc(OC)c(CCNC(=O)C(C)n2nc(C)c3c(C)n(-c4ccc(C)cc4)nc3c2=O)c1` (configuration not stated), the cell count is reported as 677 cells.
`CCCC1O[C@@H]2C[C@H]3[C@@H]4CCC5=CC(=O)C=C[C@]5(C)[C@H]4[C@@H](O)C[C@]3(C)[C@]2(C(=O)CO)O1` (some centres not stated) showed a cell count of 663 cells.
`COc1ccc(C(=O)CCC(=O)Nc2ccc(N3CCCCC3)cc2)cc1OC` showed a cell count of 796 cells.
Work on `CN1c2ccccc2C2(C)CCCC3=Cc4cccc([N+](=O)[O-])c4OC312` (configuration not stated) yielded a cell count of 250 cells.
For `CN(C)Cc1ccc(O)c(CCc2ccccc2)n1`, the cell count was 750 cells.
For `Cc1ccc2nc(Nc3ccc(F)cc3)c3nncn3c2c1`, the cell count was 811 cells.
Work on `CN1CCN(c2ccccc2NC(=S)NC(=O)c2cc3ccccc3o2)CC1` yielded a cell count of 47 cells.
In the case of `CCOc1ccc(CCNC(=O)C2CC(=O)N(Cc3ccc(OC)cc3)C2)cc1OCC` (configuration not stated), the cell count is reported as 713 cells.
For `CCOc1ccc(CCNC(=O)C2(c3ccccc3)CC2)cc1OCC`, the cell count was 719 cells.
In the case of `COC(=O)c1ccc(-c2noc(CN(C)CC3CCCCO3)n2)cc1` (configuration not stated), the cell count is reported as 455 cells.
In the case of `Cc1cccc(NS(=O)(=O)c2ccc(-c3cnc(C4CC4)o3)cc2)c1C`, the cell count is reported as 229 cells.
Work on `C/C(N)=C(/C#N)C(=O)CSc1nnc(Nc2cccc(C)c2)s1` yielded a cell count of 712 cells.
With `CCN1CCN(c2c(/C=C3\SC(=S)N(Cc4ccco4)C3=O)c(C)c(C#N)c(=O)n2C)CC1` the cell count was 751 cells.
With `CC(=O)Nc1ccc(S(=O)(=O)Nc2nc3ccccc3nc2N2CCc3ccccc3C2)cc1` the cell count was 264 cells.
`CCNC(=S)N1CCc2cc(OC)c(OC)cc2C1COc1ccc(F)cc1` (configuration not stated) showed a cell count of 687 cells.
In the case of `Cc1ccc(C(=O)NCCNC(=O)c2ccc(C)nc2)cc1`, the cell count is reported as 802 cells.
Work on `CCN(CC(=O)Nc1ccccc1C(F)(F)F)C(=O)c1cc(-c2cccs2)nn1-c1ccccc1` yielded a cell count of 829 cells.
Work on `CC(/C=N/NC(=O)c1n[nH]c2c1CCC2)=C\c1ccccc1` yielded a cell count of 256 cells.
`COc1ccc(CCNC(=O)CC(c2ccccc2)c2cc(C)ccc2O)cc1OC` (configuration not stated) gave a cell count of 820 cells.
`CCN1CC(CN(C)Cc2nc(-c3ccc(C(F)(F)F)cc3)no2)CC1=O` (configuration not stated) gave a cell count of 182 cells.
For `CCC(C(=O)NCCc1ccccc1OC)n1nc(C)c2c(C)n(-c3ccccc3)nc2c1=O` (configuration not stated), the cell count was 714 cells.
With `COc1ccc(S(=O)(=O)N2CCOC2CNC(=O)C(=O)NCCc2ccc(OC)c(OC)c2)cc1C` (configuration not stated) the cell count was 235 cells.
`Cc1cccc(C)c1NS(=O)(=O)c1ccc(-c2cnc(C3CC3)o2)cc1` gave a cell count of 228 cells.
For `O=c1cc(-c2cccc(F)c2)[nH]c2ccccc12`, the cell count was 166 cells.
Compound `CCCCCCn1c(SCC(=O)Nc2cc(C)on2)nc2ccccc2c1=O` has a cell count of 615 cells.
With `COc1cccc2c1C(=O)c1c(O)c3c(c(O)c1C2=O)C[C@@](O)(C(C)=O)C[C@@H]3O[C@H]1C[C@H](N)[C@H](O)[C@H](C)O1` the cell count was 235 cells.
With `CCOc1ccccc1C(=O)N1CCN(c2cccc(Cl)c2)CC1` the cell count was 126 cells.
Work on `Cc1ccc(NC(=O)C2CCCN(S(=O)(=O)c3c(C)noc3/C=C/N(C)C)C2)cc1F` (configuration not stated) yielded a cell count of 768 cells.
With `CCCN(CCC)c1ccc(CC(=O)NC(C)Cc2ccccc2)cc1` (configuration not stated) the cell count was 713 cells.
`COc1ccc(CNC(=O)N2CCN(S(=O)(=O)c3ccc(C)cc3C)CC2)cc1` showed a cell count of 825 cells.
`c1cc[n+](CCC[n+]2ccccc2)cc1` showed a cell count of 832 cells.
In the case of `Cc1ccc(C(=O)Nc2ccccc2C(=O)NCc2cccnc2)cc1`, the cell count is reported as 683 cells.
For `Cc1cc(C)n2nc(C(=O)N/N=C/c3c4ccccc4cc4ccccc34)nc2n1`, the cell count was 581 cells.
In the case of `N/C(=N\c1nc2c(c(=O)[nH]1)CCCC2)Nc1ccc(Oc2ccccc2)cc1`, the cell count is reported as 731 cells.
With `CC(C)(C)c1ccc(S(=O)(=O)Nc2ccc(Cc3ccncc3)cc2)cc1` the cell count was 613 cells.
`COc1cccc(N2CCN(C(=O)c3ccc(CS(=O)c4ccccc4Cl)o3)CC2)c1` (configuration not stated) gave a cell count of 278 cells.
`COc1ccc(OCC(=O)OCC(=O)N2CC(=O)Nc3ccccc32)cc1` showed a cell count of 264 cells.
`CCC(C)(C)NC(=O)C(c1ccc(OC)cc1)N(Cc1ccccc1)C(=O)CCC(=O)Nc1cc(C)on1` (configuration not stated) gave a cell count of 807 cells.
Work on `CCC1=Nc2cc(C(=O)NCc3ccco3)ccc2Sc2ccc(C)cc21` yielded a cell count of 157 cells.
Compound `COc1ccccc1/C=C/C(=O)NCC(=O)N/N=C/c1cc(Br)ccc1OC` has a cell count of 768 cells.
Compound `O=C(NC(=S)Nc1ccccn1)c1ccccc1` has a cell count of 739 cells.
`Cc1ccc(NC2=C(NCCO)C(=O)c3ccccc3C2=O)cc1` showed a cell count of 704 cells.
`CCOC(=O)c1sc2cc([N+](=O)[O-])cc(SCCO)c2c1N` showed a cell count of 620 cells.
`COC(=O)c1[nH]c2c(c1C)C(=O)CC(c1cccs1)C2` (configuration not stated) gave a cell count of 291 cells.
Work on `COc1ccccc1NC(=O)N1CCCC1C(=O)Nc1ccc2c(c1)OCO2` (configuration not stated) yielded a cell count of 736 cells.
Work on `Nc1nc(-c2ccccc2)cc(N2CCCCC2)n1` yielded a cell count of 299 cells.
In the case of `CCOc1ccc(CCNC(=O)c2cc3sc(Cl)cc3n2C)cc1OCC`, the cell count is reported as 846 cells.
In the case of `COc1cc(C2N3CC4(C)CN2CC(C)(C3)C4)ccc1O` (configuration not stated), the cell count is reported as 647 cells.
For `CN(C)c1nc(N/N=C/c2c[nH]c3ccccc23)nc(N2CCOCC2)n1`, the cell count was 686 cells.
Compound `Cc1cc(C)cc(C(=O)N2CC(=O)Nc3ccccc32)c1` has a cell count of 260 cells.
For `CCOc1cc(/C=N\Nc2nc(Nc3ccccc3)nc(N3CCOCC3)n2)ccc1OC(=O)c1ccco1`, the cell count was 587 cells.
For `CC(C)NC(=S)N1CCN(S(=O)(=O)c2cccc(C(F)(F)F)c2)CC1`, the cell count was 270 cells.
Compound `Cc1cc(Br)cc(C)c1NC(=O)c1ccc(C#N)cc1F` has a cell count of 213 cells.
For `CCOc1ccc(CCNC(=O)c2nnc(Cc3ccc(F)cc3)o2)cc1OCC`, the cell count was 695 cells.
`CC(/C=N/NC(=O)c1cc(-c2ccc(Cl)cc2)nc2ccccc12)=C\c1ccco1` gave a cell count of 284 cells.
`CCOC(=O)CN=C/C(C(=O)Nc1nccs1)=C(/C)O` gave a cell count of 220 cells.
`CC(=O)c1ccc(Nc2cc(C)nc3c(C)cccc23)cc1` gave a cell count of 214 cells.
Compound `Cc1ccc(NC(=O)/C=C/c2ccco2)nc1` has a cell count of 169 cells.
For `COc1ccc(CCNC(=O)CCc2cn(C)c3ccccc23)c(OC)c1OC`, the cell count was 792 cells.
With `Cc1nc(Nc2ccc(O)cc2)c2c3c(sc2n1)CCCC3` the cell count was 684 cells.
`COc1cccc(NC(=O)CSc2nc3ccccc3nc2N2CCCC2)c1` gave a cell count of 737 cells.
Work on `COCCOC(=O)c1[nH]c2c(c1C)C(=O)CC(c1cccs1)C2` (configuration not stated) yielded a cell count of 286 cells.
Compound `CCC(C)(C)NC(=O)C(c1ccc(OC)cc1)N(CC1CCCO1)C(=O)CCC(=O)Nc1cc(C)on1` (configuration not stated) has a cell count of 683 cells.
`Cc1cccc(NC(=O)Cc2coc3ccc4ccccc4c23)n1` gave a cell count of 720 cells.
`CC(Sc1nnc(-c2ccccc2)c(-c2ccccc2)n1)C(=O)N1CCc2ccccc21` (configuration not stated) showed a cell count of 646 cells.
Compound `COc1cc2ncnc(Nc3cccc(Cl)c3)c2cc1OC` has a cell count of 437 cells.
With `Cc1ccc(NC(=O)CSc2nc3ccccc3nc2N2CCCC2)cc1` the cell count was 732 cells.
Compound `CN(C)c1ccc(/C=N/OC(=O)Nc2ccccc2Cl)cc1` has a cell count of 198 cells.
With `Cc1ccc(N=Nc2ccc3ccccc3c2O)cc1` the cell count was 834 cells.
With `Cc1ccc(C(=O)c2cc([N+](=O)[O-])ccc2N2CCCCC2)cc1C` the cell count was 222 cells.
Compound `CCC(=NCCc1c(C)[nH]c2ccc(C)cc12)C1=C(O)CC(c2ccccc2)CC1=O` (configuration not stated) has a cell count of 179 cells.
`CCOc1ccc2nc(NC(=O)CSc3nc4ccccc4c(=O)n3Cc3ccco3)sc2c1` showed a cell count of 666 cells.
`COc1ccc(/C=C(\NC(=O)c2ccc(C)cc2)C(=O)NCCN2CCOCC2)cc1` showed a cell count of 44 cells.
Work on `COc1cc(C2C(C#N)=C(N)Oc3cc4c(cc32)OCO4)cc(OC)c1OC` (configuration not stated) yielded a cell count of 207 cells.
`Cc1ccc(CNC(=O)c2ccc3nc4[nH]c5ccccc5c4nc3c2)cc1` showed a cell count of 626 cells.
Compound `CCOc1ccc(CCNC(=O)Cn2nc(C)n3cccc3c2=O)cc1OCC` has a cell count of 708 cells.
With `O=C(Nc1nc(-c2ccccc2)cs1)C1CCCCN1S(=O)(=O)c1ccc(Cl)cc1` (configuration not stated) the cell count was 787 cells.
`COc1ccc(Cl)cc1NC(=O)CN(C)C(=O)Cc1ccc2c(c1)CCC2` gave a cell count of 828 cells.
`Cc1cc(C)n(-c2nc(N(c3ccccc3)c3ccccc3)nc(-n3nc(C)cc3C)n2)n1` gave a cell count of 682 cells.
For `CCC(C)C(NC(=O)c1ccccc1NC(=O)c1ccc(OC)cc1)C(=O)NCc1ccco1` (configuration not stated), the cell count was 720 cells.
